Results as given in PubChem BioAssay AID1347120 (National Center for Advancing Translational Sciences (NCATS), 2019).
In all, about 390,000 compounds went through this assay and about 930 (0.24%) were called active. Inconclusive results, whose numbers are uncertain, are shown with a selection of clear calls. Calls follow the shape of the dose curve; as a rule, active = well fitted activation curve with a large enough effect; inconclusive = small, poorly fitted or top-dose-only effect; inactive = no such curve, though single readings can be large or run the other way. A potency beside an inconclusive call is a rough fit, not a confirmed value.

Assay: qHTS for Suppressors of FUS Proteinopathy: Primary screen using FUS-linked yeast assay; also: nearly all actives have a fitted effect of over 55% in size
Details: S. cerevisiae FUS-expressing, OD600, 24 h; Potency: growth rescue; series mostly up to 76.6 µM
Summary of the method: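 Yeast expressing FUS under galactose induction, OD 0.005 in 2% galactose medium; compounds in a dilution series, 24 h at 30C. Growth rescue by absorbance at 600 nm; CP55940 positive control, DMSO negative.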
Potency is read from the fitted curve at half-maximal effect; tags tell the direction and shape of the fitted curve.

| SMILES | Potency |
| --- | --- |
| CN(C(=S)NC(=O)C12CC3CC(CC(C3)C1)C2)c1ccc(O)cc1 | inactive |
| C=CC[C@@H](CC(=O)NCCO)C(=O)N[C@@H](COC(=O)[C@@H](CC=C)CC(=O)OC(C)(C)C)Cc1c[nH]c2ccccc12 | inconclusive: 15.8 µM [activator, partial curve] |
| Cc1nc2ccc(S(=O)(=O)NCC(=O)NCc3ccc(F)cc3)cc2s1 | inactive |
| CCOc1sc2nc(C)n(CC(=O)Nc3cccc(C)c3)c(=O)c2c1C | inactive |
| Cc1c(-c2ccccc2)oc2c(C(=O)N3CCN(c4ccc([N+](=O)[O-])cc4)CC3)cccc2c1=O | inconclusive: 11.2 µM [activator, partial curve, poor fit] |
| CCCNC(=S)NNC(=O)c1cc(C2CC2)nc2ccccc12 | inconclusive: 15.8 µM [activator, partial curve, poor fit] |
| CC(C)(C)S(=O)N1Cc2cc(C(=O)NCC(F)(F)F)nc(-c3cccc(-c4cccc(F)c4)c3)c2[C@@H]1CCO (some centres undefined) | active: 22.4 µM |
| CN(Cc1ccccc1)C(=O)c1cccc(NC(=O)Cc2ccc(NC(=O)C3CCN(S(=O)(=O)c4cccc([N+](=O)[O-])c4)CC3)cc2)c1 | inconclusive: 20 µM [activator, single point] |
| CCN1CCc2nc3sc(C(=O)Nc4cccc(Cl)c4C)c(N)c3cc2C1 | inconclusive: 17.8 µM [activator, partial curve] |
| CC(C)C(C(=O)NCc1ccco1)N(C(=O)CNS(=O)(=O)c1ccc(Cl)cc1)C1CCCC1 (centres undefined) | inconclusive: 31.6 µM [activator, single point] |
| CCC(=O)N1CCc2cc(Br)cc(S(=O)(=O)N3CCCC(C(=O)Nc4ccc(C(C)C)cc4)C3)c21 (centres undefined) | active: 8.91 µM |
| O=C(NCCOc1nc(N2CCCCC2)nc(N2CCOCC2)n1)Nc1ccccc1 | inconclusive: 17.8 µM [activator, partial curve, poor fit] |
| Cc1sc(NC(=O)c2ccco2)c(C(c2ccccc2)N2CCC(C)CC2)c1C (centres undefined) | inactive |
| CCOC(=O)[C@]12CCC=C1N(Cc1cccc3ccccc13)C(=O)[C@H](CC(=O)NCc1ccc(OC)c(OC)c1)C2 | inconclusive: 35.5 µM [activator, single point] |
| Clc1ccc(CSc2nnc(-c3cccs3)o2)cc1Cl | inactive |
| O=C(Nc1cccc(-c2nnn(CC(=O)N3CCc4ccccc4C3)n2)c1)C1CCC1 | inconclusive: 39.8 µM [activator, single point] |
| Cc1ccc(-c2nn(-c3ccccc3)cc2C=C2SC(=S)N(CCS(=O)(=O)O)C2=O)cc1 | inconclusive: 39.8 µM [activator, partial curve, poor fit] |
| COc1ccccc1CNc1nc(-c2ccco2)nn1S(=O)(=O)c1ccc2ccccc2c1 | inconclusive: 35.5 µM [activator, single point] |
| COc1cccc(Cn2cnc3c(NS(=O)(=O)c4cc(Cl)ccc4Cl)c(C)c(C)cc32)c1 | inconclusive: 28.2 µM [activator, partial curve, poor fit] |
| COC(=O)c1c(-c2ccsc2)oc2ccc(-c3cc(OC)c(OC)c(OC)c3)cc12 | inconclusive: 50.1 µM [activator, single point] |

| SMILES | Potency |
| --- | --- |
| Cc1ccccc1C(=O)Nc1sc2c(c1C(=O)NCc1ccco1)CCC(C(C)(C)C)C2 (centres undefined) | inactive |
| CNC(=O)C1CCC(Cn2c(=O)c3sccc3n(CC(=O)NCc3ccccc3)c2=O)CC1 (centres undefined) | inactive |
| CCCCNC(=O)C[C@@H]1C[C@@]2(C(=O)OC)CCCCC=C2N(Cc2ccc3c(c2)OCO3)C1=O | inconclusive: 11.2 µM [activator, partial curve] |
| Cc1onc(-c2ccccc2Cl)c1C(=O)Nc1ccc(-n2nncc2-c2ccco2)cc1 | active: 8.91 µM |
| O=C1Nc2ccccc2C(=O)N2CCCCC12 (centres undefined) | inactive |
| CCc1ccc(CN(Cc2ccco2)c2cnc(S(C)(=O)=O)nc2C(=O)Nc2cccc(C)c2)cc1 | inactive |
| Fc1cccc(Cc2c(-c3ccco3)nc3c(Cl)cc(C(F)(F)F)cn23)c1 | inactive |
| O=C(Nc1cc(C(=O)N2CCN(c3ccccc3O)CC2)ccc1Cl)c1cccs1 | inconclusive: 25.1 µM [activator, single point] |
| CC[C@@H](CCCc1ccc(F)cc1)CN(Cc1ccc(OC)cc1)S(=O)(=O)c1ccc(C)cc1 | inactive |
| O=C(C(=O)N1CCC(c2ccccc2)CC1)c1cccc([N+](=O)[O-])c1 | inactive |
| Cc1ccc(S(=O)(=O)N2CCN(C(=O)COC(=O)CCOc3ccc(C(C)(C)C)cc3)CC2)cc1 | inconclusive: 39.8 µM [activator, partial curve, poor fit] |
| O=C(Cn1c(SCC(=O)Nc2ccc(F)cc2)nc2ccccc21)NCc1ccc(F)cc1 | inconclusive: 20 µM [activator, partial curve, poor fit] |
| O=C(c1cccc(S(=O)(=O)N2CCc3ccccc32)c1)N1CCN(c2ccccc2)CC1 | inconclusive: 50.1 µM [activator, single point] |
| CC(=O)Oc1ccc(C(=O)[C@H]2[C@H]3C(=O)N(c4ccc(C)cc4)C(=O)[C@H]3[C@@H]3C=CC=NN32)cc1 | inconclusive: 35.5 µM [activator, single point] |
| COc1ccc(C(C(=O)NC(C)(C)C)n2c(=O)c(-c3ccccc3)nc3ccccc32)cc1 (centres undefined) | inconclusive: 39.8 µM [activator, single point] |
| Cc1onc(-c2ccccc2Cl)c1C(=O)N(Cc1nc(-c2ccccc2)no1)C1CCCCC1 | inconclusive: 28.2 µM [activator, partial curve, poor fit] |
| CCCCCNC(=O)C(C1CC1)n1c(=O)c(-c2ccccc2)nc2ccccc21 (centres undefined) | inactive |
| Nc1sccc1C(=O)N1CCN(c2ccccc2)CC1 | inconclusive: 14.1 µM [activator, partial curve] |
| COc1ccc(C(C(=O)NC2CCCCC2)N(C(=O)Cc2c[nH]c3ccccc23)c2ccc(NC(C)=O)cc2)cc1OC (centres undefined) | inconclusive: 28.2 µM [activator, single point] |
